Source: PMC8959893, “T-Cell Responses to Immunodominant Listeria Epitopes Limit Vaccine-Directed Responses to the Colorectal Cancer Antigen, Guanylyl Cyclase C” (Frontiers in Immunology, 2022)

test system: GUCY2C254-262-specific T-cells; experiment: IFNγ ELISpot: recognition of altered peptides by splenocytes of mice primed with Ad5-GUCY2C; settings: splenocytes of mice immunized with Ad5-GUCY2C, 10 ug/mL peptide, 24 h at 37°C, Figure 4B

Substance | Peptide recognition by GUCY2C254-262-specific CD8+ T-cells relative to native GUCY2C254-262 peptide
GUCY2CF255Y: GUCY2C254-262 peptide variant with F255Y point mutation at an H-2K^d anchoring residue (SYYDVKGDL; UniProt Q3UWA6 254-262, looked up, variant F255Y) | equivalent
GUCY2CL262I: GUCY2C254-262 peptide variant with L262I point mutation at an H-2K^d anchoring residue (SFYDVKGDI; UniProt Q3UWA6 254-262, looked up, variant L262I) | equivalent
GUCY2CV258S: GUCY2C254-262 peptide variant with V258S point mutation at an H-2K^d anchoring residue (SFYDSKGDL; UniProt Q3UWA6 254-262, looked up, variant V258S) | poorly recognized
